± gives the standard deviation of the averaged measurements. Laboratory Escherichia coli strains with one amino-acid change in an essential protein, pooled on minimal glucose agar with carbenicillin or gentamicin at twice the control MIC (plus kanamycin and chloramphenicol for the plasmids), 48 h. Fold change of barcode share against drug-free plates; higher = less susceptible. Active = above 20 in both replicates (the paper's putatively resistant). '<' = one read or none on drug, '>' = one read or none on a drug-free plate. Shares are relative, so most strains fall below 1 when a few take over. Listed are strains with at least 15 reads on both drug-free plates, and hits; most hits rest on fewer reference reads. Replicate rank correlation about 0.5. Edits are read from barcodes.
B1: ftsB W14A (protein)
chain: MGKLTLLLLAILVALQYSLWFGKNGIHDYTRVNDDVAAQQATNAKLKARNDQLFAEIDDLNGGQEALEERARNELSMTRPGETFYRLVPDASKRAQSAGQNNR
B2: ftsB W14Q (protein)
chain: MGKLTLLLLAILVQLQYSLWFGKNGIHDYTRVNDDVAAQQATNAKLKARNDQLFAEIDDLNGGQEALEERARNELSMTRPGETFYRLVPDASKRAQSAGQNNR
B3: ftsB W14D (protein)
chain: MGKLTLLLLAILVDLQYSLWFGKNGIHDYTRVNDDVAAQQATNAKLKARNDQLFAEIDDLNGGQEALEERARNELSMTRPGETFYRLVPDASKRAQSAGQNNR
B4: ftsB W14P (protein)
chain: MGKLTLLLLAILVPLQYSLWFGKNGIHDYTRVNDDVAAQQATNAKLKARNDQLFAEIDDLNGGQEALEERARNELSMTRPGETFYRLVPDASKRAQSAGQNNR
B5: ftsH I247A (protein)
chain: MAKNLILWLVIAVVLMSVFQSFGPSESNGRKVDYSTFLQEVNNDQVREARINGREINVTKKDSNRYTTYIPVQDPKLLDNLLTKNVKVVGEPPEEPSLLASIFISWFPMLLLIGVWIFFMRQMQGGGGKGAMSFGKSKARMLTEDQIKTTFADVAGCDEAKEEVAELVEYLREPSRFQKLGGKIPKGVLMVGPPGTGKTLLAKAIAGEAKVPFFTISGSDFVEMFVGVGASRVRDMFEQAKKAAPCAIFIDEIDAVGRQRGAGLGGGHDEREQTLNQMLVEMDGFEGNEGIIVIAATNRPDVLDPALLRPGRFDRQVVVGLPDVRGREQILKVHMRRVPLAPDIDAAIIARGTPGFSGADLANLVNEAALFAARGNKRVVSMVEFEKAKDKIMMGAERRSMVMTEAQKESTAYHEAGHAIIGRLVPEHDPVHKVTIIPRGRALGVTFFLPEGDAISASRQKLESQISTLYGGRLAEEIIYGPEHVSTGASNDIKVATNLARNMVTQWGFSEKLGPLLYAEEEGEVFLGRSVAKAKHMSDETARIIDQEVKALIERNYNRARQLLTDNMDILHAMKDALMKYETIDAPQIDDLMARRDVRPPAGWEEPGASNNSGDNGSPKAPRPVDEPRTPNPGNTMSEQLGDK
B6: argC V151A (protein)
chain: MLNTLIVGASGYAGAELVTYVNRHPHMNITALTVSAQSNDAGKLISDLHPQLKGIVDLPLQPMSDISEFSPGVDVVFLATAHEVSHDLAPQFLEAGCVVFDLSGAFRVNDATFYEKYYGFTHQYPELLEQAAYGLAEWCGNKLKEANLIAAPGCYPTAAQLALKPLIDADLLDLNQWPVINATSGVSGAGRKAAISNSFCEVSLQPYGVFTHRHQPEIATHLGADVIFTPHLGNFPRGILETITCRLKSGVTQAQVAQVLQQAYAHKPLVRLYDKGVPALKNVVGLPFCDIGFAVQGEHLIIVATEDNLLKGAAAQAVQCANIRFGYAETQSLI
B7: ftsH V233A (protein)
chain: MAKNLILWLVIAVVLMSVFQSFGPSESNGRKVDYSTFLQEVNNDQVREARINGREINVTKKDSNRYTTYIPVQDPKLLDNLLTKNVKVVGEPPEEPSLLASIFISWFPMLLLIGVWIFFMRQMQGGGGKGAMSFGKSKARMLTEDQIKTTFADVAGCDEAKEEVAELVEYLREPSRFQKLGGKIPKGVLMVGPPGTGKTLLAKAIAGEAKVPFFTISGSDFVEMFVGVGASRARDMFEQAKKAAPCIIFIDEIDAVGRQRGAGLGGGHDEREQTLNQMLVEMDGFEGNEGIIVIAATNRPDVLDPALLRPGRFDRQVVVGLPDVRGREQILKVHMRRVPLAPDIDAAIIARGTPGFSGADLANLVNEAALFAARGNKRVVSMVEFEKAKDKIMMGAERRSMVMTEAQKESTAYHEAGHAIIGRLVPEHDPVHKVTIIPRGRALGVTFFLPEGDAISASRQKLESQISTLYGGRLAEEIIYGPEHVSTGASNDIKVATNLARNMVTQWGFSEKLGPLLYAEEEGEVFLGRSVAKAKHMSDETARIIDQEVKALIERNYNRARQLLTDNMDILHAMKDALMKYETIDAPQIDDLMARRDVRPPAGWEEPGASNNSGDNGSPKAPRPVDEPRTPNPGNTMSEQLGDK
B8: argC V151Q (protein)
chain: MLNTLIVGASGYAGAELVTYVNRHPHMNITALTVSAQSNDAGKLISDLHPQLKGIVDLPLQPMSDISEFSPGVDVVFLATAHEVSHDLAPQFLEAGCVVFDLSGAFRVNDATFYEKYYGFTHQYPELLEQAAYGLAEWCGNKLKEANLIAQPGCYPTAAQLALKPLIDADLLDLNQWPVINATSGVSGAGRKAAISNSFCEVSLQPYGVFTHRHQPEIATHLGADVIFTPHLGNFPRGILETITCRLKSGVTQAQVAQVLQQAYAHKPLVRLYDKGVPALKNVVGLPFCDIGFAVQGEHLIIVATEDNLLKGAAAQAVQCANIRFGYAETQSLI
B9: ftsI L264A (protein)
chain: MKAAAKTQKPKRQEEHANFISWRFALLCGCILLALAFLLGRVAWLQVISPDMLVKEGDMRSLRVQQVSTSRGMITDRSGRPLAVSVPVKAIWADPKEVHDAGGISVGDRWKALANALNIPLDQLSARINANPKGRFIYLARQVNPDMADYIKKLKLPGIHLREESRRYYPSGEVTAHLIGFTNVDSQGIEGVEKSFDKWLTGQPGERIVRKDRYGRVIEDISSTDSQAAHNLALSIDERLQALVYRELNNAVAFNKAESGSAVAVDVNTGEVLAMANSPSYNPNNLSGTPKEAMRNRTITDVFEPGSTVKPMVVMTALQRGVVRENSVLNTIPYRINGHEIKDVARYSELTLTGVLQKSSNVGVSKLALAMPSSALVDTYSRFGLGKATNLGLVGERSGLYPQKQRWSDIERATFSFGYGLMVTPLQLARVYATIGSYGIYRPLSITKVDPPVPGERVFPESIVRTVVHMMESVALPGGGGVKAAIKGYRIAIKTGTAKKVGPDGRYINKYIAYTAGVAPASQPRFALVVVINDPQAGKYYGGAVSAPVFGAIMGGVLRTMNIEPDALTTGDKNEFVINQGEGTGGRS
B10: ftsI V468A (protein)
chain: MKAAAKTQKPKRQEEHANFISWRFALLCGCILLALAFLLGRVAWLQVISPDMLVKEGDMRSLRVQQVSTSRGMITDRSGRPLAVSVPVKAIWADPKEVHDAGGISVGDRWKALANALNIPLDQLSARINANPKGRFIYLARQVNPDMADYIKKLKLPGIHLREESRRYYPSGEVTAHLIGFTNVDSQGIEGVEKSFDKWLTGQPGERIVRKDRYGRVIEDISSTDSQAAHNLALSIDERLQALVYRELNNAVAFNKAESGSAVLVDVNTGEVLAMANSPSYNPNNLSGTPKEAMRNRTITDVFEPGSTVKPMVVMTALQRGVVRENSVLNTIPYRINGHEIKDVARYSELTLTGVLQKSSNVGVSKLALAMPSSALVDTYSRFGLGKATNLGLVGERSGLYPQKQRWSDIERATFSFGYGLMVTPLQLARVYATIGSYGIYRPLSITKVDPPVPGERVFPESIVRTVAHMMESVALPGGGGVKAAIKGYRIAIKTGTAKKVGPDGRYINKYIAYTAGVAPASQPRFALVVVINDPQAGKYYGGAVSAPVFGAIMGGVLRTMNIEPDALTTGDKNEFVINQGEGTGGRS
B11: ftsI V468W (protein)
chain: MKAAAKTQKPKRQEEHANFISWRFALLCGCILLALAFLLGRVAWLQVISPDMLVKEGDMRSLRVQQVSTSRGMITDRSGRPLAVSVPVKAIWADPKEVHDAGGISVGDRWKALANALNIPLDQLSARINANPKGRFIYLARQVNPDMADYIKKLKLPGIHLREESRRYYPSGEVTAHLIGFTNVDSQGIEGVEKSFDKWLTGQPGERIVRKDRYGRVIEDISSTDSQAAHNLALSIDERLQALVYRELNNAVAFNKAESGSAVLVDVNTGEVLAMANSPSYNPNNLSGTPKEAMRNRTITDVFEPGSTVKPMVVMTALQRGVVRENSVLNTIPYRINGHEIKDVARYSELTLTGVLQKSSNVGVSKLALAMPSSALVDTYSRFGLGKATNLGLVGERSGLYPQKQRWSDIERATFSFGYGLMVTPLQLARVYATIGSYGIYRPLSITKVDPPVPGERVFPESIVRTVWHMMESVALPGGGGVKAAIKGYRIAIKTGTAKKVGPDGRYINKYIAYTAGVAPASQPRFALVVVINDPQAGKYYGGAVSAPVFGAIMGGVLRTMNIEPDALTTGDKNEFVINQGEGTGGRS
B12: ftsI V468Q (protein)
chain: MKAAAKTQKPKRQEEHANFISWRFALLCGCILLALAFLLGRVAWLQVISPDMLVKEGDMRSLRVQQVSTSRGMITDRSGRPLAVSVPVKAIWADPKEVHDAGGISVGDRWKALANALNIPLDQLSARINANPKGRFIYLARQVNPDMADYIKKLKLPGIHLREESRRYYPSGEVTAHLIGFTNVDSQGIEGVEKSFDKWLTGQPGERIVRKDRYGRVIEDISSTDSQAAHNLALSIDERLQALVYRELNNAVAFNKAESGSAVLVDVNTGEVLAMANSPSYNPNNLSGTPKEAMRNRTITDVFEPGSTVKPMVVMTALQRGVVRENSVLNTIPYRINGHEIKDVARYSELTLTGVLQKSSNVGVSKLALAMPSSALVDTYSRFGLGKATNLGLVGERSGLYPQKQRWSDIERATFSFGYGLMVTPLQLARVYATIGSYGIYRPLSITKVDPPVPGERVFPESIVRTVQHMMESVALPGGGGVKAAIKGYRIAIKTGTAKKVGPDGRYINKYIAYTAGVAPASQPRFALVVVINDPQAGKYYGGAVSAPVFGAIMGGVLRTMNIEPDALTTGDKNEFVINQGEGTGGRS

target: Escherichia coli (laboratory strain); test: barcode share on antibiotic plates over drug-free plates; higher = less susceptible; conditions: antibiotic: carbenicillin; 2× MIC (3.1 µg/mL)
Protocol: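 A pool of E. coli strains, each edited to carry one amino-acid change in an essential protein, was grown for 48 h on minimal glucose agar with or without antibiotic; strain barcodes were sequenced; mean of two replicates.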

How did the “fold change of barcode share” value turn out when B1 was run?
Its value is 0.304 ± 0.038.

Which “fold change of barcode share” value does the source give for B2 here?
Its value is 0.276 ± 0.043.

With B3 as the protein, how does the “fold change of barcode share” value read?
The value was 0.274 ± 0.034.

For B4, which “fold change of barcode share” value is on record?
The value was 0.273 ± 0.035.

With B5 as the protein, how does the “fold change of barcode share” value read?
The value was 0.933 ± 0.095.

Which “fold change of barcode share” value does the source give for B6 here?
The value was 0.394 ± 0.051.

Which “fold change of barcode share” value does the source give for B7 here?
The value was 0.0979 ± 0.019.

Which “fold change of barcode share” value does the source give for B8 here?
The value was 5.74 ± 1.3.

With B9 as the protein, how does the “fold change of barcode share” value read?
The value was 0.416 ± 0.24.

For B10, which “fold change of barcode share” value is on record?
Its value is 0.337 ± 0.36.

With B11 as the protein, how does the “fold change of barcode share” value read?
Its value is 97.1 [active].

How did the “fold change of barcode share” value turn out when B12 was run?
The value was 0.298 ± 0.035.

same assay, conditions: antibiotic: gentamicin; 2× MIC (MIC 0.45 µg/mL)

With B1 as the protein, how does the “fold change of barcode share” value read?
The value was under 0.00141.

For B2, which “fold change of barcode share” value is on record?
Its value is 0.00517 ± 0.005.

With B3 as the protein, how does the “fold change of barcode share” value read?
The value was 0.00508 ± 0.0046.

How did the “fold change of barcode share” value turn out when B4 was run?
The value was 0.0375 ± 0.046.

Which “fold change of barcode share” value does the source give for B5 here?
The value was under 0.012.

B6 was tested. Which “fold change of barcode share” value did it give?
Its value is 0.0143 ± 0.012.

For B7, which “fold change of barcode share” value is on record?
The value was 0.0119 ± 0.009.

How did the “fold change of barcode share” value turn out when B8 was run?
Its value is under 0.01.

For B9, which “fold change of barcode share” value is on record?
Its value is 0.00188 ± 0.0016.

For B10, which “fold change of barcode share” value is on record?
Its value is 0.0141 ± 0.002.

B11 was tested. Which “fold change of barcode share” value did it give?
The value was 0.0109 ± 0.0086.

B12 was tested. Which “fold change of barcode share” value did it give?
Its value is under 0.00439.

— the supplement of paper PMC11876631
